± gives the standard deviation. This is a selection; strong and weak results do not stand in their true shares.
Tested on: MIWI (PIWIL1) piRISC loaded with piRNA #1 (30 nt)
Experiment: pre-steady-state target cleavage rate (min^-1); MIWI and MILI are mouse PIWI proteins and EfPiwi is from a freshwater sponge; tags in brackets are library labels; higher = faster piRNA-guided slicing of the target
Conditions: guide: piRNA #1 5'p-UGAGGUAGUAGGUUGUAUAGUAUCCAGAGG; auxiliary factor: 500 nM mouse GTSF1
Outline: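 Reactions were run for 0–8 or 0–960 min at 33 °C in HEPES–potassium acetate buffer, combining 1 nM active affinity-purified piRISC with one synthetic guide, […] transcribed, DNA-blocked target RNA library and, in some cases, 500 nM GTSF1 partner protein. Sequencing of uncleaved targets followed, with normalisation to depth and to weakly complementary targets. Three trials were pooled, k3 was capped at 0.0001 min^-1, and the pre-steady-state cleavage rate was taken from a burst-and-steady-state fit.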
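Note: 1 nM active piRISC with 0.1 nM target library at 33 °C single turnover.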

Row | Sequence | pre-steady-state target cleavage rate
1 | GGAGACCUUAGUAAACAACCUACUACCUCA | 0.00718 ± 0.0027
2 | GGAGACCUAACUAUACAACCUACUUCCACA | 0.0872 ± 0.034
3 | GGAGACCUAUCUAAACAACCUACUACGUCA | 0.0476 ± 0.011
4 | CCUCUGGAUACUAUACGACCUACUACCUCA | 1.52 ± 0.086
5 | GGAGACGAUACUAUACAAUCUACUACCUCA | 0.409 ± 0.024
6 | CCUCUGGUUACUAUACAACCAACUACCUCA | 0.171 ± 0.017
7 | CCUCUCGAUACUAUAGAACCUACUACCUCA | 0.39 ± 0.043
8 | GGAGUCGAUACUAUACAACCUACUACCUGA | 0.476 ± 0.051
9 | GGACUGGAUACUUUACAACCUACUACGUCA | 0.227 ± 0.034
10 | GGAGACCUUACUAUAGAAGCUACUACCUCA | 0.354 ± 0.032
11 | GGACUGGAUACUAUACAACGUACUACCACA | 0.604 ± 0.06
12 | GCUCUGGAUACUAUACAACGUACUACCUCA | 1.32 ± 0.069
13 | GGAGACCUUACUAUAGAACCUACUACCACA | 0.246 ± 0.031
14 | GGACUGGAUACUUUACAACCUAGUACCUCA | 0.218 ± 0.039
15 | GCUCUGGAUACUAUAGAACCUACUACGUCA | 0.53 ± 0.059
16 | GGACUCGAUACUAUACAACCUACUACCACA | 0.579 ± 0.063
17 | GCUCUGGAUACAAUACAACCUACUACCUCA | 1.73 ± 0.1
18 | GGAGAGCAAACUAUACAACCUACUACCUCA | 1.21 ± 0.091
19 | GGAGAGGAUACUAUACAACCAACUAGCUCA | 0.0485 ± 0.0086
20 | GGUCUGGAUACUAUACAACCUACUACACUCA | 0.799 ± 0.14

Row | Sequence | pre-steady-state target cleavage rate
21 | CCUCUGGAUACUAUACAGACCUACUACCUCA | 0.0114 ± 0.0052
22 | GGAGACCAUACUUUACAACCUUCUACCUCA | 0.415 ± 0.036
23 | GGUCUGGAUACUAUACAACCUAGUACCUCA | 0.497 ± 0.071
24 | GGAGACCUUACUAUACUAACCUACUACCUCA | < 0.0001
25 | GGAGACCUAUCUAUACAACCUAUUACCUCA | 0.459 ± 0.046
26 | CCUCUGGAUACUAACAACCUACUACCUCA | 1.75 ± 0.13
27 | CCUGUGGAUACUAUACAACCUACUAGCUCA | 0.183 ± 0.049
28 | GGAGUGCAUACUAUACAACCUACUAGCUCA | 0.162 ± 0.026
29 | GCUCUGGAUACUAUACAACCUACUACCCUCA | 1.32 ± 0.086
30 | GGAGACGAUACUAUACAACCGACUACCUCA | 0.0129 ± 0.0025
31 | GGAGAGGAUACUAUAGUUCCUACUACCUCA | 0.142 ± 0.021
32 | GGAGACCUUACUAUACAUCCAACUACCUCA | 0.0249 ± 0.0059
33 | GGAGACCUUACUAUUGAACCUACUACCUCA | 0.116 ± 0.017
34 | GGAGUGGAUACUAUACAUCCUUCUACCUCA | 0.249 ± 0.017
35 | GGAGAGGAAACUAUACAACCUACUUCCUCA | 0.294 ± 0.15
36 | GGAGACCAUACUAUACAACCAUCUACCUCA | 0.0225 ± 0.0065
37 | CCUCUGGAUACUAUACAACCUACUACGACA | 1.15 ± 0.087
38 | GGACUGGAUACUAUACAACCUACUACCUGCA | 0.545 ± 0.073
39 | GGAGAGGAUACUAUACAACCACUACCUCA | 0.00665 ± 0.0025

From the supplement of paper PMC10338343
